We go through 88 compounds from paper PMC4336329 (PLoS ONE, 2015).

About 2,200 (0.71%) of roughly 310,000 compounds showed an effect of 50% or more. The effect is printed as a negative number. The list shows a part of the results.

Sequence of human ether-à-go-go-related gene (hERG) potassium channel (Q12809 whole entry, looked up): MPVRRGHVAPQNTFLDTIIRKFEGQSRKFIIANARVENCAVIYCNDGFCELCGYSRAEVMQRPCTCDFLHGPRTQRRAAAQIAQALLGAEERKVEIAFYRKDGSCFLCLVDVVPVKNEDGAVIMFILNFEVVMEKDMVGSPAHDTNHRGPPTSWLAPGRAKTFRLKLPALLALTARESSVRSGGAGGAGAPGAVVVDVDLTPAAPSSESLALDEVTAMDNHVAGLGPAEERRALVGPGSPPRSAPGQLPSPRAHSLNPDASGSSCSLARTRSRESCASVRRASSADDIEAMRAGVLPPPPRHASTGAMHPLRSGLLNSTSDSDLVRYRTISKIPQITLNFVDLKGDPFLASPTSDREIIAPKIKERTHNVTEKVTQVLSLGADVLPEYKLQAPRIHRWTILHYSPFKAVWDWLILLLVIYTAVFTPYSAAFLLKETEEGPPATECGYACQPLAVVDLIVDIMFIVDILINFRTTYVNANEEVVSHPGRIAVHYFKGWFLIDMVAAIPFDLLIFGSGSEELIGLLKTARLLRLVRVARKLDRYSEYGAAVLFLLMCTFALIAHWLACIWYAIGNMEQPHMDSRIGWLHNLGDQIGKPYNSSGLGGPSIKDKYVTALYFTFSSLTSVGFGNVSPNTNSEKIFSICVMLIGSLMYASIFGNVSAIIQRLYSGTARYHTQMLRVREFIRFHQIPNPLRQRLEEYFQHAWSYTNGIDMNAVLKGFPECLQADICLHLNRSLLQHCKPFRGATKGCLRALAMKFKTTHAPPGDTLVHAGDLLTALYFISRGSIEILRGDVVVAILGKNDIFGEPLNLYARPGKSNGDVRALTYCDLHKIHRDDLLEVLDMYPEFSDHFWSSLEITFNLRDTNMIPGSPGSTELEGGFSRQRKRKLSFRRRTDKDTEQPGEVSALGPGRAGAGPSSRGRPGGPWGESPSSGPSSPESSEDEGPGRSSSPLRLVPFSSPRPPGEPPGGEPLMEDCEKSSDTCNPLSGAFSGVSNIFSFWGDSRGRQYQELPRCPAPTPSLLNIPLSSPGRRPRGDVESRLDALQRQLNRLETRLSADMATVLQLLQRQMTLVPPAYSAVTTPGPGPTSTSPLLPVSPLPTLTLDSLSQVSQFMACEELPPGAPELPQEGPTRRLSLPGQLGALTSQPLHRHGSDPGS

This experiment addresses human ether-à-go-go-related gene (hERG) potassium channel (human, UniProt Q12809). Description: primary screen, population patch clamp on CHO cells stably expressing hERG.
Take `O=S(=O)(NCC(c1cccnc1)N1CCN(Cc2ccccc2)CC1)c1ccc(F)cc1` (stereo not shown): the “hERG current change (%, negative = inhibition) at 1uM” value is -42.6%.
The value for `O=C(COc1ccccc1Br)c1ccc2c(c1)OCO2` was -13.7%; that for `C/C(=C\c1ccccc1F)C(=O)c1c(C)cc(C)[nH]c1=O` was 11.4%.
For the compound `Cc1cc(SCC(=O)OCC(=O)N2CCCC2=O)c(C)cc1Br`, the “hERG current change (%, negative = inhibition) at 1uM” value came out at 5.68%.
In the case of `CCCCCCc1nc(C(N)=O)c2[nH]c(=O)n(-c3ccccc3F)c2n1`, the “hERG current change (%, negative = inhibition) at 1uM” value is listed as 10.1%.
With `Cc1occc1C(=O)NNC(=O)c1ccccc1Br`, the “hERG current change (%, negative = inhibition) at 1uM” value was 3.06%.
Turning to `CC1(C)CC(=O)C2=C(C1)N=C1SCCC(=O)N1C2c1ccc(C(F)(F)F)cc1` (stereo not shown), the “hERG current change (%, negative = inhibition) at 1uM” value was 0.759%.
For `O=C(CSc1nc(=O)n(CCCN2CCOCC2)c2c1CCCC2)Nc1cccc(Cl)c1`, the “hERG current change (%, negative = inhibition) at 1uM” value is given as -13%.
Turning to `COc1ccc(/C=C2\SC(=O)N(CCC(=O)Nc3ccccc3)C2=O)cc1OC`, the “hERG current change (%, negative = inhibition) at 1uM” value is 5.38%.
The figure for `COc1ccccc1C1=CC(=O)C[C@H](c2ccc3c(c2)OCO3)C1` is 18.1%.
The value for `CC(O)CNc1ccc([N+](=O)[O-])cc1S(=O)(=O)N1CCOCC1` (stereo not shown) was 12%.
Turning to `COc1cccc(/C=N\NC(=O)Cn2nnc3ccccc32)c1O`, the “hERG current change (%, negative = inhibition) at 1uM” value is given as 20.1%.
The value for `CC12CC(c3ccccc3O1)C(/C(N)=N/NC(=O)c1ccc(F)cc1)C(=O)N2` (stereo not shown) was -2.99%; that for `Cc1ccc(S(=O)(=O)N2CCN(C(=O)CCc3c[nH]c4ccccc34)CC2)c(C)c1` was 12.6%.
As for `CCCC1(C(=O)OC)NC(c2ccc(OC)cc2OC)C2C(=O)N(c3cccc(C(C)=O)c3)C(=O)C21` (stereo not shown), the “hERG current change (%, negative = inhibition) at 1uM” value is 5.22%.
The value for `Cc1cc(=O)n2nc(N3CCCC(C(=O)NCc4ccc(Cl)cc4)C3)sc2n1` (stereo not shown) was -21.5%; that for `CCOc1ccccc1-n1c(SCC(=O)N2CCCC2)nnc1-c1ccc(O)cc1` was 10.6%; that for `N#CC(c1ccccc1)N1CCOCC1` (stereo not shown) was 17.7%.
Take `CCN(CC)CCN(C(=O)CCS(=O)(=O)c1ccccc1)c1nc2cc(OC)c(OC)cc2s1.Cl`: the “hERG current change (%, negative = inhibition) at 1uM” value is reported as -2.65%.
`O=C(CN(Cc1ccco1)C(=O)CNS(=O)(=O)c1ccc(Cl)cc1)NCc1ccc(F)cc1`: the “hERG current change (%, negative = inhibition) at 1uM” value was -15.8%.
Consider `Cc1nc2c(c(=O)c3ccccc3n2C)c(=O)n1C1CCCCCC1`, for which the “hERG current change (%, negative = inhibition) at 1uM” value stood at 11.9%.
In the case of `CN(Cc1ccc(OC(F)F)cc1)C(=O)c1ccc2c(=O)n3c(nc2c1)CCC3`, the “hERG current change (%, negative = inhibition) at 1uM” value is -17%.
With `Cc1nn(-c2ccccc2)cc1/C=N/NS(=O)(=O)c1ccccc1`, the “hERG current change (%, negative = inhibition) at 1uM” value was -4.63%.
The value for `COc1ccc(NS(=O)(=O)Cc2ccccc2)cc1OC` was -3.91%; that for `O=C(NC(=S)Nc1ccccc1Br)c1ccc2c(c1)OCO2` was -67.9%; that for `O=C1C2C3C=CC(C3)C2C(=O)N1c1cccc(-c2nc3ccccc3o2)c1` (stereo not shown) was 20.5%.
Turning to `CC1(C)CC(=O)C2=C(C1)Nc1nc(SCCN3CCOCC3)[nH]c(=O)c1C2c1cccs1` (stereo not shown), the “hERG current change (%, negative = inhibition) at 1uM” value came to 8.75%.
The figure for `COc1ccc([N+](=O)[O-])cc1N=Cc1c(O)n(CCc2ccccc2)c(=O)n(C(C)C)c1=O` is 8.09%.
Turning to `Cc1nccn1CC(=O)O`, the “hERG current change (%, negative = inhibition) at 1uM” value is recorded as 15.1%.
The figure for `Cc1ccc(C)n1Cc1ccccc1Cl` is 12.7%; for `COc1cc(N2CCOCC2)ccc1C=C(C#N)C#N` it is -5.91%.
The value for `COc1cc(OC)c(OC)cc1/C=N/NC(=O)c1ccc2nc[nH]c2c1` was 13%; that for `COc1cccc(-c2nc(SCC(=O)Nc3nc(-c4ccccc4)c(C)s3)[nH]c(=O)c2C#N)c1` was 18.3%.
The figure for `CC(C)C(=O)NC(c1ccccc1)c1cc([N+](=O)[O-])c2cccnc2c1O` (stereo not shown) is -5.21%; for `O=C(CCSCCC(=O)NCc1ccccc1)NCc1ccccc1` it is 3.39%; for `O=C(Nc1ccccc1Cl)C1CCCN(S(=O)(=O)c2ccc(F)cc2)C1` (stereo not shown) it is 4.6%.
For `COc1cccc(S(=O)(=O)N2CCN(c3ccccc3F)CC2)c1`, the “hERG current change (%, negative = inhibition) at 1uM” value is 5.53%.
As to `CSc1ncnc2c1cnn2-c1ccc(C)cc1C`, the “hERG current change (%, negative = inhibition) at 1uM” value is given as 1.88%.
The figure for `COc1ccc(OC)c(NC(=O)c2ccccc2N(Cc2ccccc2)S(C)(=O)=O)c1` is 11.4%; for `COc1ccccc1-c1nnc(SCCN2CCOCC2)n1-c1ccc(C)cc1` it is -2.44%.
As to `Cc1ccc(C(C)C)cc1S(=O)(=O)Nc1cccnc1`, the “hERG current change (%, negative = inhibition) at 1uM” value was 15.7%.
`CC1CCC2(CC1)NC(=O)N(CC(=O)Nc1ccc3c(c1)CCC3)C2=O` (stereo not shown): the “hERG current change (%, negative = inhibition) at 1uM” value came to 0.161%.
The value for `Cc1csc(SCC(=O)Nc2ccc(S(=O)(=O)N3CCCC3)cc2)n1` was 9.7%.
The value for `CCOC(=O)N1CCN(C(=O)CCCn2c(=O)[nH]c3ccccc3c2=O)CC1` was -2.67%; that for `Cc1ccc(CSc2ncn(-c3ccccc3)n2)cc1` was 7.18%.
For the compound `CCOc1ccc(Br)cc1C(=O)N/N=C/c1cccc(C)n1`, the “hERG current change (%, negative = inhibition) at 1uM” value came to 15.2%.
Turning to `N#CCC(=O)Nc1ccc(C(=O)OCC(=O)NCc2ccc3c(c2)OCO3)cc1`, the “hERG current change (%, negative = inhibition) at 1uM” value stood at 11.5%.
Turning to `Cc1ccc(NC(=O)c2ccc3c(c2)OCO3)cc1S(=O)(=O)N1CCOCC1`, the “hERG current change (%, negative = inhibition) at 1uM” value came to 13.8%.
Turning to `COc1ccc(NC(=O)COc2nsnc2N2CCOCC2)c(OC)c1`, the “hERG current change (%, negative = inhibition) at 1uM” value is 17.2%.
`O=C(O)CC(c1cccc(C(F)(F)F)c1)N1CCS(=O)(=O)CC1` (stereo not shown): the “hERG current change (%, negative = inhibition) at 1uM” value was determined as 10.7%.
The value for `O=C(Nc1cccc(C(F)(F)F)c1)c1csc(-c2ccncc2)n1` was -82.4%.
Take `O=C(NNC(=O)c1cccc(S(=O)(=O)N2CCN(c3ccccc3)CC2)c1)c1ccc(Cl)cc1`: the “hERG current change (%, negative = inhibition) at 1uM” value was -32.6%.
The value for `Cc1cc(C)n(CCC(=O)N/N=C/c2cccc([N+](=O)[O-])c2)n1` was 5.65%; that for `CCCCn1c(N)c(N(CC(C)C)C(=O)COC(=O)c2ccccc2NCCO)c(=O)[nH]c1=O` was 11.1%; that for `CCNc1nc(NCC)nc(OCCOC(C)=O)n1` was 10.7%.
The figure for `Cc1[nH][nH]c(=O)c1C(c1ccc(-c2cccc(C(=O)O)c2)o1)c1c(C)[nH][nH]c1=O` is 18.6%.
The value for `O=C(C1CCN(S(=O)(=O)c2ccc(Cl)cc2)CC1)N1CCCC1` was 0.45%; that for `O=C(Cc1ccccc1)Nc1ccc(C(=O)Nc2ccc(O)cc2)cc1` was 13.6%; that for `CC1CCN(c2nc(-c3ccccc3O)nc3ccccc23)CC1` was 20.4%.
Consider `CC(=O)c1cccc(S(=O)(=O)N2CCN(c3ccccc3F)CC2)c1`, for which the “hERG current change (%, negative = inhibition) at 1uM” value came out at 5.02%.
The value for `O=C(Cc1ccccc1F)Nc1ccc(S(=O)(=O)Nc2ncccn2)cc1` was 12.7%.
The figure for `CC(C)(C)c1cc(NC(=O)COC(=O)c2nccnc2N)n(-c2ccccc2)n1` is 17.4%; for `O=C(NNC(=O)[C@@H]1CCCC[C@@H]1C(=O)O)Nc1ccccc1` it is 13.5%; for `Cc1cccc(NC(=O)CSc2n[nH]c(-c3cccnc3)n2)c1` it is 9.5%.
The figure for `CCN(CC)/C(N)=N/c1nc(C)cc(C)n1` is 3.23%; for `COc1c(S(=O)(=O)NCCN2CCOCC2)ccc(Cl)c1Cl` it is -5.65%.
Take `CN1CCN(S(=O)(=O)c2ccc(Nc3ccc(F)cc3)c([N+](=O)[O-])c2)CC1`: the “hERG current change (%, negative = inhibition) at 1uM” value is -14.9%.
Regarding `Nc1nc(Nc2ccc(Cl)cc2)c(NC=O)c(=O)[nH]1`, the “hERG current change (%, negative = inhibition) at 1uM” value stood at 11.5%.
For `COC(=O)c1sccc1NC(=O)CC1C(=O)NCCN1C(=O)c1ccc(F)cc1` (stereo not shown), the “hERG current change (%, negative = inhibition) at 1uM” value is on record as -5.56%.
The figure for `CCn1c(=S)sc2c(=O)[nH]c(C)nc21` is 13.5%.
In the case of `O=C(COc1cccc2cccnc12)NNC(=S)Nc1ccccc1`, the “hERG current change (%, negative = inhibition) at 1uM” value is recorded as -6.43%.
The value for `CCOC(=O)C(C)Oc1cc(C)cc2oc(=O)c3c(c12)CCCC3` (stereo not shown) was -7.5%.
The figure for `CN1C(=O)C(C)(C)c2cc(S(=O)(=O)N3CCCC(C(=O)NCc4ccc(F)cc4)C3)ccc21` (stereo not shown) is 8.72%.
Take `Cc1ccc(CN2C(=O)CCC2C(=O)NC2CCCC2)cc1` (stereo not shown): the “hERG current change (%, negative = inhibition) at 1uM” value is reported as 10.1%.
Take `O=C(COc1cc2oc(=O)c3c(c2cc1Cl)CCC3)N1C[C@H]2C[C@@H](C1)c1cccc(=O)n1C2`: the “hERG current change (%, negative = inhibition) at 1uM” value was -5.28%.
As to `CC(=O)c1ccc(OCC(=O)OCC(=O)NCc2ccco2)cc1`, the “hERG current change (%, negative = inhibition) at 1uM” value is recorded as 13%.
Take `Cc1ccc[n+](CC(=O)Nc2nc3ccccc3s2)c1.[Cl-]`: the “hERG current change (%, negative = inhibition) at 1uM” value came to 15.2%.
The value for `O=c1c(-c2ccc(Cl)cc2)coc2c(CN3CCCCC3)c(O)ccc12` was -1.1%.
The figure for `CCCCCn1c(=S)[nH]c2ncccc2c1=O` is -4.93%; for `CC(C)(C)c1ccc(C(=O)NCc2cccnc2)cc1` it is 19.3%.
The figure for `O=c1c2cc(Cl)ccc2nc(-c2ccccc2Cl)n1O` is 15.4%; for `CCOc1ccc(CCn2c(-c3ccco3)nc3ccccc3c2=O)cc1OCC` it is 5.96%.
`O=Cc1ccc(OCC(=O)Nc2ccccc2-c2ccccc2)cc1`: the “hERG current change (%, negative = inhibition) at 1uM” value was -9.63%.
Turning to `O=C(O)c1cccnc1SC1CC(=O)N(CCc2ccccc2)C1=O` (stereo not shown), the “hERG current change (%, negative = inhibition) at 1uM” value is 3.07%.
The value for `CCCCn1c(=O)cc(O)c2ccccc21` was 13.6%; that for `CSCCCNC(=S)Nc1ccc(N2CCOCC2)cc1` was 28%.
Turning to `Cc1ccc(Cl)cc1N1CCN(CC(=O)Nc2ccc(CN3CCCCC3)cc2)CC1.Cl`, the “hERG current change (%, negative = inhibition) at 1uM” value is given as -21.6%.
The figure for `CC(C(=O)Nc1ccc(F)cc1Cl)N(C)CCOc1ccccc1` (stereo not shown) is 3.18%.
